The list shows a part of the results.
The sequences below were run against no compound (DMSO) (assay: log2 fold change of degron read counts, EGFP-low vs EGFP+ sorted cells; higher = lower degron-EGFP level without compound (poor expression or instability)). Settings: compound: DMSO control; 18 h.
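Note: jurkat cells carrying a lentiviral library of mutant zinc finger degrons fused to EGFP plus mCherry, mCherry+ cells FACS sorted, degron abundance counted by next-generation sequencing.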

Sequence | log2 fold change of degron read counts
FDCEICGAHFTQKGNLLRHIKL | -2.14
FDCPICGRKFTQKGNLLRHIKL | -0.00663
FRCPVCGAKFTQKGNLLRHIKL | -0.128
FFCNQCGRQFTQKGNLLRHIKL | 0.0893
FCCNVCGAIFTQKGNLLRHIKL | -0.0474
FDCPICGRQFTQKGNLLRHIKL | 0.0294
FYCPICGAGFTQKGNLLRHIKL | -0.21
FMCEVCGASFTQKGNLLRHIKL | -2.35
FWCEICGHAFTQKGNLLRHIKL | -0.849
FHCPVCGAAFTQKGNLLRHIKL | -0.583
FVCNICGAIFTQKGNLLRHIKL | 0.169
FDCNQCGAHFTQKGNLLRHIKL | -0.701
FFCNQCGHEFTQKGNLLRHIKL | -0.606
FVCNICGASFTQKGNLLRHIKL | -1.22
FYCNICGADFTQKGNLLRHIKL | -0.256
FNCNQCGRWFTQKGNLLRHIKL | 0.71
LKCPICGFWCTQKGNLLRHIKL | 1.09
LRCNQCGFQCTQKGNLLRHIKL | 0.356
FTCPQCGAVFTQKGNLLRHIKL | -0.689
FRCPICGRGFTQKGNLLRHIKL | 0.175
FTCDVCGACFTQKGNLLRHIKL | -1.27
LACNQCGFYCTQKGNLLRHIKL | 1.34
LYCNQCGFLCTQKGNLLRHIKL | 1.53
FICNVCGAMFTQKGNLLRHIKL | -0.378
FNCEICGAWFTQKGNLLRHIKL | -1.62

Sequence | log2 fold change of degron read counts
FDCPQCGAMFTQKGNLLRHIKL | -1.6
FCCNVCGARFTQKGNLLRHIKL | -0.342
LVCEICGFNCTQKGNLLRHIKL | -0.295
FDCEICGAEFTQKGNLLRHIKL | -1.09
FECPVCGARFTQKGNLLRHIKL | -0.519
FRCNVCGASFTQKGNLLRHIKL | -1.05
FQCEICGAEFTQKGNLLRHIKL | -1.32
FFCPICGRFFTQKGNLLRHIKL | 0.318
FGCDQCGATFTQKGNLLRHIKL | -2.16
FACNQCGAAFTQKGNLLRHIKL | -1.06
FSCEVCGAIFTQKGNLLRHIKL | -1.88
FVCEVCGADFTQKGNLLRHIKL | -2.64
LKCNQCGFLCTQKGNLLRHIKL | 0.378
FFCEICGREFTQKGNLLRHIKL | -1.78
FSCPICGRYFTQKGNLLRHIKL | 0.411
FVCNICGAEFTQKGNLLRHIKL | -2.32
FMCDICGAIFTQKGNLLRHIKL | -0.865
FECNQCGAEFTQKGNLLRHIKL | -1.45
FRCEQCGAGFTQKGNLLRHIKL | -1.63
FWCDICGAYFTQKGNLLRHIKL | 0.55
FDCPICGHEFTQKGNLLRHIKL | -1.31
FFCEQCGAYFTQKGNLLRHIKL | -0.51
FTCSVCGHLFTQKGNLLRHIKL | -0.281
FDCEQCGAPFTQKGNLLRHIKL | -2.95
FICSVCGHVFTQKGNLLRHIKL | -0.228

From the supplement of paper PMC12645437, “Orthogonal IMiD-Degron Pairs Induce Selective Protein Degradation in Cells” (ACS Chemical Biology, 2025)
